Measured values taken from the supplement of paper PMC4166925.
± gives the standard deviation of the averaged measurements. Whole data set: some 33,000 sequences, median “E-score (dimensionless, -0.5 to 0.5)” near -0.046, cut for the highest 2% near 0.36. Some of the results follow.

test system: T1, SpTbr T-box DNA-binding domain (GST fusion); assay: PBM E-score of 8-mer (E-score (dimensionless, -0.5 to 0.5)); Tbr is Tbrain of the sea star Patiria miniata (Pm) or the sea urchin Strongylocentrotus purpuratus (Sp); higher = stronger binding preference; most listed sequences are background and not binding sites; conditions: the construct has about 5 more residues each side
T1 sequence: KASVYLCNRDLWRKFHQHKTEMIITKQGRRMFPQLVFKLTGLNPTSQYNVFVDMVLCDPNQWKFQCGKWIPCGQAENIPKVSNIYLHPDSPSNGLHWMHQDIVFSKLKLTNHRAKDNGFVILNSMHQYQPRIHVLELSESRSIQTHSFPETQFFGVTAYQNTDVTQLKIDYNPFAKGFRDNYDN
How it was run: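 Using the Universal PBM Analysis Suite, every ungapped 8-mer received an enrichment E-score averaged over duplicate arrays. Probe intensities came from double-stranded Universal Agilent oligonucleotide arrays incubated with 200 nM GST-fused Tbr T-box DNA-binding domain in PBS (pH 7.5). That protein was expressed in BL21 E. coli at 20 °C and purified by glutathione affinity chromatography.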

| Sequence | PBM E-score of 8-mer |
| --- | --- |
| AGGAACAA | 0.00263 ± 0.041 |
| TACATTGA | -0.109 ± 0.04 |
| TATGAGGA | -0.216 ± 0.029 |
| AGTTCGGC | -0.0722 ± 0.068 |
| CCCACTCA | 0.138 ± 0.057 |
| CCTAGTTA | -0.168 ± 0.024 |
| CATCGTAG | -0.139 ± 0.1 |
| ACGCTTAC | 0.109 ± 0.0068 |
| ACGAGTCC | -0.261 ± 0.04 |
| GGCCATAC | -0.203 ± 0.026 |
| GGACCAAA | -0.212 ± 0.02 |
| CATATCAC | 0.238 ± 0.054 |
| ATTGTAGC | -0.133 ± 0.062 |
| AGGTATCA | 0.183 ± 0.024 |
| ATCTATCC | -0.159 ± 0.0024 |
| CCGAACAC | 0.248 ± 0.039 |
| GTAGTCAA | -0.127 ± 0.051 |
| CGGGAACC | -0.064 ± 0.024 |
| AAGTGTTC | 0.226 ± 0.11 |
| AAGTATGA | -0.0929 ± 0.097 |
| TCGTAAGA | -0.204 ± 0.0035 |
| GTGTAACA | 0.27 ± 0.017 |
| ATTGCTAC | -0.186 ± 0.037 |
| AAGAGAAT | -0.287 ± 0.022 |
| AGTTAAAA | -0.143 ± 0.054 |

| Sequence | PBM E-score of 8-mer |
| --- | --- |
| GCCCCTAC | -0.0948 ± 0.025 |
| GGATAGCC | -0.214 ± 0.029 |
| ACAAGGTA | 0.0584 ± 0.021 |
| AATAGCGC | 0.158 ± 0.022 |
| CTCTGAGC | -0.105 ± 0.021 |
| AAAGGACC | -0.108 ± 0.026 |
| GGTCCACA | 0.078 ± 0.085 |
| AACACTCG | 0.193 ± 0.0083 |
| CTGGCCCC | -0.113 ± 0.035 |
| CTACTGGC | 0.0629 ± 0.026 |
| CTCCAGCA | -0.103 ± 0.0024 |
| ATGACCAA | -0.137 ± 0.026 |
| GTCATGAA | -0.13 ± 0.0072 |
| AATGTGAT | 0.253 ± 0.0037 |
| CTCGTCCA | -0.0131 ± 0.024 |
| AAGATCGA | -0.12 ± 0.059 |
| AGGGTGTA | 0.307 ± 0.035 |
| AGGCTACT | 0.0207 ± 0.0056 |
| AGCGCACC | -0.00226 ± 0.0026 |
| GTCGACCA | -0.132 ± 0.051 |
| GATTCACC | -0.0546 ± 0.0018 |
| ACGGTCGC | 0.231 ± 0.037 |
| AAATGAGG | -0.257 ± 0.035 |
| ATGTCGAC | 0.119 ± 0.059 |
| GCCTCGCC | 0.0505 ± 0.087 |

| Sequence | PBM E-score of 8-mer |
| --- | --- |
| GTATATAC | 0.0264 ± 0.12 |
| AAACTCCG | -0.00816 ± 0.039 |
| ACCTTTAA | 0.00473 ± 0.039 |
| TCGACGCA | -0.0484 ± 0.008 |
| CATTAAGC | -0.289 ± 0.018 |
| CTGTCATC | 0.177 ± 0.013 |
| TCAATCGA | -0.0374 ± 0.037 |
| ATCCCAAA | -0.282 ± 0.029 |
| CAGAGTGG | -0.183 ± 0.059 |
| AGAAACAG | -0.152 ± 0.019 |
| AGACGCCT | 0.0499 ± 0.039 |
| GATTACCA | -0.111 ± 0.013 |
| CATTAGGG | -0.154 ± 0.023 |
| AAAGTAGT | -0.0543 ± 0.04 |
| ACGTAGTG | 0.0424 ± 0.0026 |
| ACATCACA | 0.334 ± 0.015 |
| GCGTCAGA | 0.125 ± 0.049 |
| GCCGATTA | -0.134 ± 0.067 |
| AACTACTA | 0.0694 ± 0.016 |
| CCAGGCCC | -0.268 ± 0.06 |
| ATTGCCCC | -0.232 ± 0.016 |
| CCTACTAC | -0.0653 ± 0.03 |
| GGCCTACC | -0.048 ± 0.0016 |
| TAACTGGA | -0.118 ± 0.038 |
| GCCGTGCA | -0.216 ± 0.1 |

| Sequence | PBM E-score of 8-mer |
| --- | --- |
| CCTCGTAC | -0.22 ± 0.0077 |
| AACTTTTA | -0.0953 ± 0.064 |
| ATGAGTAC | -0.0248 ± 0.023 |
| CCTAGGTC | 0.00702 ± 0.05 |
| CTGTCAAG | 0.18 ± 0.023 |
| GCTTTACC | -0.196 ± 0.021 |
| CCTCAAAA | -0.153 ± 0.026 |
| CTGACAAG | 0.211 ± 0.018 |
| GGAACCCC | -0.185 ± 0.0092 |
| AAGACGCC | -0.0502 ± 0.016 |
| CTAATATA | -0.3 ± 0.085 |
| AGGCCAGG | -0.142 ± 0.04 |
| ATCAAAAG | -0.237 ± 0.043 |
| ACCCTTTC | -0.0966 ± 0.057 |
| ACAGACGC | 0.0616 ± 0.0029 |
| GAACGTGA | 0.101 ± 0.0031 |
| GCCTCGTA | -0.267 ± 0.025 |
| CACCTGCA | 0.346 ± 0.0038 |
| GTAGCCGA | -0.187 ± 0.026 |
| CATGCTAA | 0.0578 ± 0.029 |
| GACGCTCC | -0.126 ± 0.02 |
| CGTCGGAG | 0.0498 ± 0.043 |
| GGGCGCCC | 0.00973 ± 0.072 |
| CACGTCTC | 0.0338 ± 0.053 |
| ATAAACCG | -0.169 ± 0.054 |

| Sequence | PBM E-score of 8-mer |
| --- | --- |
| CTAATGCA | 0.038 ± 0.071 |
| GCCTGAAA | -0.0776 ± 0.0074 |
| GCGCACCC | 0.212 ± 0.069 |
| ACACACGG | 0.0795 ± 0.13 |
| AACCGACC | -0.016 ± 0.015 |
| ATGCTGAG | -0.12 ± 0.1 |
| CAACGCAG | -0.0456 ± 0.012 |
| GAATAACC | -0.155 ± 0.032 |
| AATAAGCC | -0.191 ± 0.022 |
| ACTGGTCT | -0.28 ± 0.0082 |
| CGCAGTTA | 0.067 ± 0.066 |
| CCGCCTGA | -0.356 ± 0.012 |
| ATGAGCAT | -0.135 ± 0.0018 |
| CAGGTTTA | -0.0433 ± 0.065 |
| ATGAGAAA | -0.221 ± 0.031 |
| TAAGACGA | -0.132 ± 0.059 |
| AGCGATGA | 0.0419 ± 0.037 |
| ACTAGACT | -0.137 ± 0.048 |
| AGTGTCAA | 0.453 ± 0.0054 |
| CAGATATC | -0.0613 ± 0.018 |
| ACGGTGCC | 0.118 ± 0.0085 |
| ACAAAGTC | 0.109 ± 0.039 |
| CCGCTGAC | -0.016 ± 0.012 |
| AGTGAAAA | 0.0688 ± 0.073 |
| ACCTAGGT | 0.254 ± 0.061 |

| Sequence | PBM E-score of 8-mer |
| --- | --- |
| CCCGCACG | 0.124 ± 0.056 |
| GAATCACC | 0.00864 ± 0.021 |
| GTATCGCA | 0.221 ± 0.02 |
| CGGGACCG | -0.0903 ± 0.048 |
| CAAGATAA | -0.144 ± 0.0098 |
| ATATGTAA | -0.176 ± 0.04 |
| ATAATGGG | -0.206 ± 0.063 |
| CGGACGAC | -0.203 ± 0.028 |
| ACTCCGTA | -0.155 ± 0.017 |
| AGACCAGC | 0.0467 ± 0.024 |
| ACGGAACT | -0.139 ± 0.019 |
| AGAGATCA | -0.0746 ± 0.0016 |
| CTGTAATC | -0.16 ± 0.066 |
| ATCGAAAT | -0.0649 ± 0.025 |
| CAAGTTCG | 0.0356 ± 0.0073 |
| ATCGACTA | 0.0794 ± 0.01 |
| TATCAGCA | 0.0345 ± 0.0075 |
| CAAGATGA | -0.0746 ± 0.023 |
| ACCCAAGG | -0.0401 ± 0.046 |
| TAACGGGA | 0.143 ± 0.061 |
| GCTCCGAC | 0.0514 ± 0.0047 |
| ATTCTGCA | -0.151 ± 0.033 |
| ATCTGGGC | -0.056 ± 0.0047 |
| AGACGTTC | -0.0642 ± 0.046 |
| ATGCGCCA | -0.0177 ± 0.0079 |

| Sequence | PBM E-score of 8-mer |
| --- | --- |
| ACCTAAAG | 0.0571 ± 0.062 |
| CCAAACCG | 0.0602 ± 0.012 |
| GTCAAGAC | 0.223 ± 0.018 |
| CTTATCGC | 0.175 ± 0.018 |
| TGGCACCA | 0.362 ± 0.014 |
| GACCGCAC | 0.0215 ± 0.05 |
| ACGGTTCC | -0.0885 ± 0.02 |
| GCAGTCCA | -0.00324 ± 0.027 |
| ATTGTGGG | 0.0801 ± 0.075 |
| AGCGCGAT | 0.276 ± 0.009 |
| AGTAAGCC | -0.164 ± 0.051 |
| ATTTCGCA | 0.335 ± 0.025 |
| AAGGTCTG | -0.0365 ± 0.042 |
| CCAATTCG | 0.0242 ± 0.027 |
| CGTAAGTA | 0.169 ± 0.0079 |
| AGATAAGC | -0.083 ± 0.007 |
| CCCAAAGG | -0.0518 ± 0.025 |
| CTCACATC | 0.377 ± 0.013 |
| AGGGAGAA | -0.0813 ± 0.029 |
| CAACCAAA | 0.00574 ± 0.045 |
| AACTCTAC | 0.129 ± 0.16 |
| ACAAGTAG | 0.118 ± 0.029 |
